Laboratory results: patent US11726081B2, “Methods to identify modulators of tau protein structure” (REGENTS OF THE UNIVERSITY OF MINNESOTA, priority 2019, dated 2023)

Key:
[1] = molecular target: P301L tau (Homo sapiens, UniProt P10636, P618L); assay: Western blot of tau level and Ser396 phosphorylation in SH-SY5Y cells; type: cell-based; conditions: MK-886 2 μM, 72 hours
Experimental: To test the expression of tau FRET biosensors, HEK293 cells were plated in a 100 mm plate at a density of 5×10^6 cells/plate and transfected with tau-GFP/RFP (tau FRET biosensor) plasmid. […] In both cases, cells were lysed for 30 minutes on ice with radioimmunoprecipitation assay (RIPA) lysis buffer (Pierce RIPA buffer, Thermo Fisher Scientific) containing 1% protease inhibitor (Clontech, Mountain View, Calif.) and 1% phosphatase inhibitors (Millipore Sigma), and centrifuged at 15,000 g at 4° C. for 15 min. The total protein concentration of lysates was determined by bicinchoninic acid (BCA) assay (Pierce), and equal amounts of total protein (60 μg) were mixed with 4× Bio-Rad sample buffer and loaded onto 4%-15% Trisglycine sodium dodecyl sulfate-polyacrylamide gel electrophoresis (SDS-PAGE) gels (Bio-Rad, Hercules, Calif.). Proteins were transferred to polyvinylidene fluoride (PVDF) membrane (Immobilon-FL, EMD Millipore, Billerica, Mass.) and probed using antibodies against tau (Tau-5, Thermo Fisher Scientific) or antibody specific to Serine 396 of tau (Phospho-Tau 5396, Thermo Fisher Scientific) with β-actin (ab8227, Abcam, Cambridge, Mass.) used as loading control. Blots were quantified on the Odyssey scanner (LI-COR Biosciences, Lincoln, Nebr.).

[2] = molecular target: T1, P301L tau FRET biosensor (tau-GFP/RFP) (Homo sapiens, UniProt P10636, P618L); assay: P301L tau inter-molecular FRET biosensor in HEK293 cells, dose-response; type: cell-based
T1 construct: cDNA encoding full-length 2N4R tau (441 amino acids); expressed in transfected cells; host or cells: HEK293, transient
Experimental: (§1) HEK293 and SH-SY5Y cells (ATCC) were cultured in phenol red-free Dulbecco's Modified Eagle Medium (DMEM, Gibco) supplemented with 2 mM L-Glutamine (Invitrogen), heat-inactivated 10% fetal bovine serum (FBS HI, Gibco), 100 U/ml penicillin and 100 μg/ml streptomycin (Gibco). Cell cultures were maintained in an incubator with 5% CO2 (Forma Series II Water Jacket CO2 Incubator, Thermo Scientific) at 37° C. […] To generate stable cell lines expressing GFP-tau-RFP or tau-GFP only, HEK293 cells were transiently transfected using Lipofectamine 3000 with GFP-tau-RFP or tau-GFP DNA plasmids. Transiently transfected cells were treated with G418 (Enzo Life Sciences, Farmingdale, N.Y.) to eliminate non-expressing cells. Stable cell lines expressing GFP-tau-RFP or tau-GFP with the largest population of expressing cells were selected by fluorescence microscopy. The GFP-linker-RFP (linker contains 32 amino acids, GFP-32AA-RFP) control stable cell line was generated as described previously. The control cells expressing only free soluble fluorophores (GFP or RFP only) were generated by transiently transfecting HEK293 cells using Lipofectamine 3000 with plasmids containing GFP or RFP DNAs at the same plasmid concentration as the inter-molecular tau FRET biosensor.
(§2) The compound was dissolved in DMSO to make a 10 mM stock solution, which was serially diluted in 96-well mother plates. […]

[3] = molecular target: T2, P301L tau FRET biosensor (Homo sapiens, UniProt P10636, P618L); assay: P301L tau FRET biosensor in SH-SY5Y cells, dose-response; type: cell-based; conditions: 96 hrs, read-out: EC50, FRET reduction, P301L tau biosensor in SH-SY5Y cells
T2 construct: cDNA encoding full-length 2N4R tau (441 amino acids); expressed in transfected cells; host or cells: SH-SY5Y, transient
Experimental: as §1, §2

[4] = molecular target: purified full-length 2N4R P301L tau protein (Homo sapiens, UniProt P10636, P618L); assay: Surface plasmon resonance (SPR) binding assay, P301L tau; conditions: read-out: Kd, binding to purified P301L tau protein, steady-state, immobilized tau, 25° C.
Experimental: Full-length 2N4R WT tau proteins were purified from E. coli using previously published protocols. Full-length tau was expressed with a cleavable His-tag. After elution from a nickel column, cleavage of the His-tag was achieved by incubation with tobacco etch virus (TEV) protease at room temperature for at least 4 hours, followed by passing through the His-tag column again to separate cleaved and uncleaved protein and remove the TEV. Final purification was performed by size-exclusion chromatography and the purity of the proteins was assessed by 4%-15% SDS-PAGE gels (Bio-Rad) under reducing conditions, followed by Coomassie staining. Fractions of pure proteins from the gels were pooled together and the protein stock concentrations were measured using the BCA assay (Thermo Fisher Scientific). Full-length 2N4R P301L tau protein was purchased (rPeptide).
Binding affinity between full-length 2N4R WT or P301L tau and the hit compounds were determined by SPR analysis using BIAcore 5200. […]
For direct binding assays to the tau proteins, hit compounds at eight different concentrations (1 nM to 5 μM), as well as DMSO-only controls, were prepared in HEPES-EP containing a total of 2% DMSO. […] All the samples, along with blanks from buffer and DMSO-only controls, were measured on a 96-well microplate (Biacore, GE Healthcare) at 25° C. […]

[5] = system: SH-SY5Y human neuroblastoma cells transfected with P301L tau; type: cell-based
Experimental: Cell cytotoxicity was measured using the CytoTox-Glo (Promega Corporation) luminescence assay kit. […] The transfected cells were then plated at a density of 10000 cells/well in white solid 96-well plate (Corning) with a total volume of 100 μl, followed by treatment with MK-886 at eight different concentrations (1 nM to 2 μM), as well as DMSO-only controls, for another 72 hours. […] The first luminescence reading was measured using a Cytation3 Cell Imaging Multi-Mode Reader luminometer (BioTek). 50 μl of Lysis Reagent with 1% Triton X-100 was then added, followed by incubation at room temperature for 15 min, and luminescence was measured again using the luminometer. Cell cytotoxicity was calculated following the manufacturer protocol. Effect of MK-886 on the suppressors of inhibitors of apoptosis (IAPB) (YM-155 and UC-112) was tested with untransfected SH-SY5Y cells plated in white solid 96-well plate with treatment of YM-155 (1 μM) or UC-112 (1 μM) in the absence or presence of MK-886 (0.5, 1 or 2 μM).

Chain of P301L tau (P10636 1-441 isoform P10636-8 P301L): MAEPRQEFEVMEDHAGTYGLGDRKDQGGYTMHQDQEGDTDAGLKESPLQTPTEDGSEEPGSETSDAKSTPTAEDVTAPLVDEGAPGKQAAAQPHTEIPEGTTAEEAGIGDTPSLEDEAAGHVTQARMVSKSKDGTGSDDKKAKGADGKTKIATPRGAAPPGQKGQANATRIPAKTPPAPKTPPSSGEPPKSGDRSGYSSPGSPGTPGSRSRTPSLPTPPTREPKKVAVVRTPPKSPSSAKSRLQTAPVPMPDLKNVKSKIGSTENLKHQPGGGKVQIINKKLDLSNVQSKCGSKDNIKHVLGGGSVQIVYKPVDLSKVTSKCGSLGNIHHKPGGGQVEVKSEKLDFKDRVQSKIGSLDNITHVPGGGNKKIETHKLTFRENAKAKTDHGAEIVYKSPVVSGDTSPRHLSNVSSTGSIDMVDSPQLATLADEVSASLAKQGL
T1 sequence (P10636 1-441 isoform P10636-8 P301L): as above
T1 sequence (P10636 1-441 isoform P10636-8 P301L): as above
T2 sequence (P10636 1-441 isoform P10636-8 P301L): as above
T2 sequence (P10636 1-441 isoform P10636-8 P301L): as above
Chain of purified full-length 2N4R P301L tau protein (P10636 1-441 isoform P10636-8 P301L): as above

## CC(C)c1ccc2c(c1)c(SC(C)(C)C)c(CC(C)(C)C(=O)O)n2Cc1ccc(Cl)cc1 [MK-886]
[1]
  phosphorylation state of tau (Serine 396): no changes
  relative levels of expressed tau (Tau-5 antibody): no changes
[2]; dose response
  FRET level of P301L biosensor after treatment: lowered the FRET level of P301L biosensor to the basal FRET level of WT tau biosensor
[2]; read-out: EC50, decrease of FRET efficiency, P301L tau biosensor
  EC50: 1840 nM
[3]
  EC50: 1060 nM
[4]
  Kd: 375 nM
[5]
  IC50: 523 nM
